# Hit rate of the full screen: of about 410,000 compounds, about 6,400 (1.6%) were called active. The inconclusive results got no clear call from the source; some entries with a clear call stand among them for comparison. Calls follow the shape of the dose curve; as a rule, active = well fitted inhibition curve with a large enough effect; inconclusive = small, poorly fitted or top-dose-only effect; inactive = no such curve, though single readings can be large or run the other way. No potency is given beside an inconclusive call; the fits are too rough.
# Target: Glucagon-like peptide 1 receptor (Homo sapiens) (UniProt P43220)
# Test: qHTS of GLP-1 Receptor Inverse Agonists (Inhibition Mode); also: nearly all actives have a fitted effect of over 55% in size
# Details: HEK293 GLP-1R CRE-luciferase, luminescence, 24 h, GLP-1R form is constitutively active; activity change, negative = inhibition: at 38.3 µM (top of the series) unless noted
# Method in brief: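 Cells are plated, allowed 12 hours at 37 deg C, then treated with compounds for 24 hr before luciferase detection reagent is added and luminescence is read after 12 min at room temperature. The HEK293 line carries constitutively active GLP-1R with a cAMP-responsive reporter.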
# % is scaled to controls: 0 for no effect and ±100 for the full control effect; potency is read from the fitted curve at half-maximal effect; tags tell the direction and shape of the fitted curve.
# Sequence of UniProt P43220 (P43220 whole entry, looked up): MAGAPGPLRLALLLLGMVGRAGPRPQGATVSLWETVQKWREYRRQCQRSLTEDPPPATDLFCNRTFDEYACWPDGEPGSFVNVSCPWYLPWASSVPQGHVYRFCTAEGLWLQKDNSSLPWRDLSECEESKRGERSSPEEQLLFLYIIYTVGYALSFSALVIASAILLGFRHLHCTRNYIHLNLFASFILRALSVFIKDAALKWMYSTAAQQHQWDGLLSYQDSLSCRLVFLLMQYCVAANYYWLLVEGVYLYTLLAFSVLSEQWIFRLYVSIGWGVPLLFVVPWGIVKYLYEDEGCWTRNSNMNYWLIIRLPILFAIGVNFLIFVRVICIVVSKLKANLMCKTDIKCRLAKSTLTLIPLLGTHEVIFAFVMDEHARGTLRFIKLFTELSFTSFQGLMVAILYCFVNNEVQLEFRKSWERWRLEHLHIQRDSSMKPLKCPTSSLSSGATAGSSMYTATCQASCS
Structure (SMILES),"activity change, negative = inhibition",Potency
Cc1cc(C)n2ncc(C(=O)NCc3ccc(Cl)cc3)c2n1,inactive: 47.4%,
COc1cccc(NC(=O)CN(C)C(=O)COc2ccccc2Cc2ccccc2)c1,,"inconclusive [inhibitor, partial curve, poor fit]"
O=c1c2ccccc2cnn1Cc1ccc(Cl)c(Cl)c1,,active: 10 µM
Cc1ccc(Cl)cc1N1CCN(S(=O)(=O)c2c(C)[nH]c(C)c2C(=O)N2CCCC2)CC1,,"inconclusive [inhibitor, single point]"
O=C1NC(Nc2nccs2)(C(F)(F)F)C(=O)N1CCc1ccccc1 (configuration not stated),,"inconclusive [inhibitor, partial curve, poor fit]"
C(=N\N(c1ccccc1)c1ccccc1)/c1ccc(N2CCOCC2)s1,,"inconclusive [inhibitor, partial curve, poor fit]"
Cc1ccc(NC(=O)CNc2ccc(OC(C)C)cc2)c(C)c1,,"inconclusive [inhibitor, single point]"
CCc1nc(SCC(=O)OC)c2c3c(sc2n1)COC(C)(C)C3,,"inconclusive [inhibitor, single point]"
CCC1CCC2(CC1)NC(=O)N(CC(=O)Nc1ccc(OC)cc1)C2=O (configuration not stated),,"inconclusive [inhibitor, partial curve, poor fit]"
CC(=O)Nc1sc2c(c1C(c1ccccn1)N1CCCC1)CCCC2 (configuration not stated),,"inconclusive [inhibitor, partial curve, poor fit]"
O=C(Nc1cccnc1Cl)c1cc([N+](=O)[O-])ccc1Cl,,"inconclusive [inhibitor, single point]"
Cc1cc(C)c(S(=O)(=O)N2CCCOC2CNC(=O)C(=O)NCCc2c[nH]c3ccccc23)c(C)c1 (configuration not stated),,"inconclusive [inhibitor, partial curve, poor fit]"
CC1(C)CC(=O)c2sc(NC(=O)C(C)(C)C)nc2C1,,"inconclusive [inhibitor, single point]"
O=[N+]([O-])c1ccc(OCC(O)CN(C2CCCCC2)C2CCCCC2)cc1 (configuration not stated),,"inconclusive [inhibitor, full curve]"
COc1cccc(NC(=O)Cc2nnc(SCCOc3ccccc3)n2C)c1,,"inconclusive [inhibitor, single point]"
CCc1ccccc1NS(=O)(=O)c1ccc2c(c1)CCCN2C(=O)C1CCC1,,"inconclusive [inhibitor, single point]"
COc1ccc(Cc2c(Cl)ncnc2Cl)cc1,,"inconclusive [inhibitor, single point]"
Cc1nn2c(=O)cc(COC(=O)c3ccccc3NC(=O)c3cccs3)nc2s1,inactive: 2.26%,
Cc1cc(C(=O)N2CCN(C/C=C/c3ccccc3)CC2)no1,inactive: 4.07%,
COc1ccc(NC(=O)CN2CCN(Cc3ccccc3Cl)S2(=O)=O)cc1Cl,,"inconclusive [inhibitor, single point]"
COc1ccc(S(=O)(=O)N2CCN(Cc3ccccc3)CC2)c(C)c1,,"inconclusive [inhibitor, partial curve, poor fit]"

Structure (SMILES),"activity change, negative = inhibition",Potency
CSc1cccc(NC(=O)CN(Cc2ccc(Cl)cc2)S(C)(=O)=O)c1,,"inconclusive [inhibitor, single point]"
O=C(CCC1CCCC1)Nc1cc(C(F)(F)F)ccc1N1CCOCC1,,"inconclusive [inhibitor, partial curve, poor fit]"
CCn1c(CN2CCN(C(c3ccccc3)c3ccccc3)CC2)nc2c1c(=O)n(C)c(=O)n2C,,"inconclusive [inhibitor, single point]"
Cc1ccc2c(c1)C(c1ccccc1)N(C(=O)c1ccc(F)cc1)CC(=O)N2 (configuration not stated),,"inconclusive [inhibitor, partial curve, poor fit]"
O=C1NC[C@H](c2ccccc2)OC(=O)[C@@H](Cc2ccc(F)cc2)CC/C=C/C[C@@H]1CC(=O)N(CCO)Cc1ccccc1,,"inconclusive [inhibitor, single point]"
N#Cc1c(Oc2ccc3ccccc3c2)sc(C(=O)c2ccccc2)c1N,,"inconclusive [inhibitor, full curve, poor fit]"
N#CC1=C(N)OC2=C(C(=O)CC(c3ccccc3)C2)C1c1cccnc1 (configuration not stated),inactive: 51.6%,
CCCn1nc(C(=O)Nc2cccc(S(=O)(=O)N(C)c3ccccc3)c2)c2ccccc2c1=O,,"inconclusive [inhibitor, partial curve, poor fit]"
CC1(C)C2CCC1(C)C(OCCNCCOC(=O)Nc1ccccc1)C2 (configuration not stated),,active: 11.2 µM
CCOc1ccc(-c2cc(CCCC(=O)NCCC(C)C)no2)cc1,,"inconclusive [inhibitor, partial curve, poor fit]"
CC1CCCCC1NC(=O)c1cccc(S(=O)(=O)N2CCN(Cc3ccccc3)CC2)c1 (configuration not stated),,"inconclusive [inhibitor, partial curve, poor fit]"
COC(=O)CN1C(=O)CSc2ccc(S(=O)(=O)Nc3cccc(C)c3)cc21,inactive: -6.48%,
CCN1CCN(c2nc(-c3ccccn3)nc3ccccc23)CC1,,"inconclusive [inhibitor, partial curve, poor fit]"
CC1=C(C(=O)Nc2ccc(F)cc2)C(c2ccc(C)o2)C2=C(CC(C)(C)CC2=O)N1 (configuration not stated),,"inconclusive [inhibitor, partial curve, poor fit]"
Cc1ccccc1CSCCNC(=O)c1ccc(Cl)c(S(=O)(=O)N2CCOCC2)c1,,"inconclusive [inhibitor, partial curve, poor fit]"
OC(COc1ccccc1CNCc1cccnc1)CN1CCc2ccccc2C1 (configuration not stated),,"inconclusive [inhibitor, single point]"
Nc1c(Br)cc(Br)c2c1C(=O)c1c(cccc1S(=O)(=O)O)C2=O,inactive: -11.7%,
COc1ccc(C(=O)N/C(=C\c2cccc3ccccc23)C(=O)NCCc2c[nH]c3ccccc23)cc1OC,,"inconclusive [inhibitor, full curve, poor fit]"
COc1cccc(CNC(=O)CCCn2ncn3c(cc4occc43)c2=O)c1OC,inactive: 10.6%,
Cc1cc(C(=O)NCc2ccc(Cl)cc2)n(-c2ccccc2)n1,,"inconclusive [inhibitor, single point]"
O=C(CN1CCN(c2ccccc2F)CC1)Nc1ccccc1F,inactive: -6.48%,

Structure (SMILES),"activity change, negative = inhibition",Potency
CN(Cc1ccccc1)c1nc(N)c([N+](=O)[O-])c(NCc2ccccc2)n1,,"inconclusive [inhibitor, single point]"
NC(=O)CN1CCOCCOCCN(CC(N)=O)CCOCCOCC1,inactive: 11.1%,
O=C(CCCn1c(=O)[nH]c2ccccc2c1=O)NCCSCc1ccccc1,inactive: -7.77%,
Cc1oc2ccc(O)cc2c1C(=O)c1ccc(Br)cc1,,"inconclusive [inhibitor, single point]"
O=C(Nc1ccccc1N1CCCCC1)c1cccc(OC(F)F)c1,,"inconclusive [inhibitor, partial curve, poor fit]"
O=C1Nc2ccccc2-n2nnnc2C1N1CCN(C(=O)C2CCCO2)CC1 (configuration not stated),inactive: 22.6%,
COc1ccc(N2CCN(CC(O)COc3ccccc3[N+](=O)[O-])CC2)cc1 (configuration not stated),inactive: -21.5%,
COc1ccc(-c2ccc(CN3C(C(C)C)C(=O)N(Cc4cn(CC5CCCCC5)nn4)CCS3(=O)=O)cc2)cc1 (configuration not stated),,"inconclusive [inhibitor, single point]"
O=C(NCCc1cccc(Cl)c1)c1cc([N+](=O)[O-])ccc1Cl,,"inconclusive [inhibitor, single point]"
CC1CN(S(=O)(=O)c2cccc(C(=O)Nc3ccccc3N3CCCCC3)c2)CC(C)O1 (configuration not stated),,"inconclusive [inhibitor, single point]"
O=C1C(=O)N(C2CCN(S(=O)(=O)c3ccccc3)CC2)CCN1Cc1ccccc1,inactive: -6.66%,
COc1ccc(OC)c(CCNC(=O)c2cc3cccc4c3n2CC(C)S4)c1 (configuration not stated),,"inconclusive [inhibitor, single point]"
Cn1c2ccccc2c2c(C(=O)N3CCN(c4cccc(Cl)c4)CC3)cn(C3CCCCC3)c(=O)c21,,"inconclusive [inhibitor, single point]"
Cc1ccc(Cl)cc1N1CCN(C(=O)c2ccc(NS(=O)(=O)c3c(C)noc3C)cc2)CC1,,"inconclusive [inhibitor, partial curve, poor fit]"
Cc1onc(-c2ccccc2)c1C(=O)Nc1nnc(CC(C)(C)C)s1,,"inconclusive [inhibitor, partial curve, poor fit]"
O=S(=O)(Nc1nc(-c2sccc2Cl)cs1)c1cc(Cl)ccc1Cl,,"inconclusive [inhibitor, single point]"
COc1ccc(-c2cc(C(=O)Nc3c(C)n(C)n(-c4ccccc4)c3=O)c3ccccc3n2)cc1,,"inconclusive [inhibitor, single point]"
Cc1c(CN2CCN(CC(C)C)C(CCO)C2)[nH]c2ccc(Cl)cc12 (configuration not stated),,"inconclusive [inhibitor, single point]"
COc1ccc(NC(=O)CC2C(=O)N(C)C(=S)N2CCc2ccccc2)cc1 (configuration not stated),,"inconclusive [inhibitor, single point]"
COc1ccc(C(=O)Nn2c(SCc3ccc([N+](=O)[O-])cc3)nc3ccccc3c2=O)cc1,,"inconclusive [inhibitor, partial curve, poor fit]"
